Assay results as given in patent CN113150156A.

Key:
[1] = biological target: T1, 生物素标记的TIGIT (Acrobiosystems, TIT-H82E5) (UniProt Q495A1); test: competition ELISA, blocking of biotinylated TIGIT binding to coated CD112
T1 sequence (biotin-labelled (生物素标记), site not stated, looked up): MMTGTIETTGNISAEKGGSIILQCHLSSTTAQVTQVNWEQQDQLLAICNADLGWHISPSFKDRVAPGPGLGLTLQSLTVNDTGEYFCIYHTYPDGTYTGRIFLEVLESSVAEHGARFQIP

[2] = biological target: T2, 人源TIGIT on TIGIT效应细胞 (Jurkat T cells) (human) (UniProt Q495A1); test: cell-based or functional assay
T2 sequence (looked up): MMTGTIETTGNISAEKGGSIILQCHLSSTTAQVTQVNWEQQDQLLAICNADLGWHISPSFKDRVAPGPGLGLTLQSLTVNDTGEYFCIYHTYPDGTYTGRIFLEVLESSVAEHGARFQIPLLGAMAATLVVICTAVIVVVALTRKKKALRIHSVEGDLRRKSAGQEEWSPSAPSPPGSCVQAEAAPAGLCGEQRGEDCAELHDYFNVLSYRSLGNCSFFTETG

[3] = biological target: T1, 生物素标记的TIGIT (Acrobiosystems, TIT-H82E5); test: competition ELISA, blocking of biotinylated TIGIT binding to coated CD155
[4] = biological target: T3, 人TIGIT蛋白 (Acrobiosystems, TIT-H52H3) (human) (UniProt Q495A1); test: ELISA, TIGIT protein coated at 0.5 μg/ml, HRP goat anti-human IgG detection
T3 sequence (looked up): T1 sequence (biotin-labelled (生物素标记), site not stated, looked up)

IC50 [1]: 18.1 nM
化学发光信号值 (TIGIT/CD155报告基因实验, IL2启动子调控的荧光素酶) [2]: 74.5 nM
IC50 [3]: 3.52 nM
EC50 [4]: 0.105 nM
B1: c7D3 (antibody, part only; not given: light chain, IgG1, part only)
heavy: EVQLQQSGPELVKPGASVKMSCKASGYTFTSYVMHWVKQKPGQGLEWIGYINPYNDGTKYNEKFKGKATLTSDKSSSTAYMELSSLTSEDSAVYYCARRGNGPLRVFAYWGQGTTVTVSS[letters of human IgG1 constant region omitted]
